# Results reported in PubChem BioAssay AID1508642 (National Center for Advancing Translational Sciences (NCATS), 2021).
# Hit rate of the full screen: of about 43,000 compounds, about 200 (0.47%) were called active. Not shown: some 12% with an inconclusive outcome. Calls come from the whole dose curve; as a rule, active = well fitted cell-killing curve with a large enough effect; inconclusive = small, poorly fitted or top-dose-only effect, or effect the other way; inactive = flat fitted curve, though single readings scatter. This is one part of the list.
# Assay: Cell viability qHTS assay in S16 Pmp22-F2sN cells; note: nearly all actives have a fitted effect of over 65% in size
# Conditions: S16 Pmp22-F2sN Schwann cells (luciferase reporters placed in the Pmp22 gene) viability, CellTiter-Glo, 24 h; series mostly up to 57.5 µM; activity change, negative = cytotoxicity: at the top concentration
# Procedure, shortened: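 S16 Schwann cells carrying the Pmp22-F2sN reporter, seeded in 1536-well format, were exposed to library compounds for 24 h at 37C. Viability was read as CellTiter-Glo luminescence after 15 min at room temperature.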
# % is set by controls: 0 for no effect and ±100 for the full control effect.
row,SMILES,"activity change, negative = cytotoxicity"
1,O=C(Cn1c(=O)n(-c2ccccc2)c(=O)c2c3c(sc21)CCCC3)Nc1cccc(F)c1,inactive: 18.4%
2,COc1cccc(Cc2nc3ccccc3nc2SCC(=O)Nc2ccccc2F)c1,inactive: -19.4%
3,CN(C)c1ccc(CNC(=O)c2ccc(NC(=O)c3nsc4ccccc34)cc2)cc1,inactive: 3.55%
4,CC(C)C1N=C2c3ccccc3N=C(SCC(=O)NCc3ccc(F)cc3)N2C1=O (stereo unspecified),inactive: 3.46%
5,Cc1cccc(NC(=O)Cn2c(=O)n(CCc3ccccc3)c(=O)c3sc4ccccc4c32)c1,inactive: -0.0906%
6,CCC12CN3CC(C)(CN(C1)C3c1c(C)n(C)c3ccccc13)C2=O (stereo unspecified),inactive: -1.02%
7,Cc1cccc(CNC(=O)c2ccc3nc(-c4ccccc4)c(-c4ccccc4)nc3c2)c1,inactive: 16.1%
8,Cc1c(C(=O)NCc2ccccc2Cl)cccc1-n1cnc2cccnc21,inactive: -0.816%
9,CCN(CC)S(=O)(=O)c1nnc(NC(=O)COc2cccc(C)c2)s1,inactive: 2.61%
10,Cn1cnc(S(=O)(=O)N2CCCC(C(=O)Nc3cccc(C#N)c3)C2)c1 (stereo unspecified),inactive: 18.7%
11,Cc1ccc(CNCc2c(C(=O)O)c(C)n(Cc3ccc(C)cc3)c2C)cc1,inactive: 15.5%
12,O=C(Nc1c(C(=O)c2ccc(F)cc2)oc2ccccc12)c1cc(-c2ccccc2)on1,inactive: 0.396%
13,CCOc1ccc(CNC(=O)c2ccc3nc(CC)c(CC)nc3c2)cc1OC,inactive: -5.96%
14,CCc1ccc(S(=O)(=O)c2c(C(=O)c3ccc(C)c(C)c3)cnc3ccccc23)cc1,inactive: -2.82%
15,COc1cccc(N2CCN(c3ccc4nnc(CCC(=O)O)n4n3)CC2)c1,inactive: 18%
16,CCn1c(=O)cc(OCC(=O)Nc2cc(OC)c(OC)c(OC)c2)c2ccccc21,inactive: -7.13%
17,COCCNC(=O)CSc1nc2ccccc2nc1Cc1ccc(C)cc1,inactive: 14.4%
18,COc1ccc(CCNC(=O)CCCCCn2c(SCC(N)=O)nc3cc4c(cc3c2=O)OCO4)cc1OC,inactive: 12.3%
19,CCN(CC)S(=O)(=O)c1ccc2c(c1)N(CC(=O)Nc1ccc(F)cc1)C(=O)CO2,inactive: -7.98%
20,Cc1ccc(S(=O)(=O)N2CCCc3cc(NC(=O)c4ccccc4Cl)ccc32)cc1,inactive: -8.33%
21,Cc1ccc(C)c(N(C)C(=O)C2CCN(c3ncnc4c3nc3n4CCCCC3)CC2)c1,inactive: -1.23%
22,O=C(NCC(c1cccnc1)N1CCN(Cc2ccccc2)CC1)C(=O)Nc1cccc(F)c1 (stereo unspecified),inactive: -18%
23,CCOC(=O)CC(NC(=O)Cn1nnc(-c2ccc(C(F)(F)F)cc2)n1)c1ccc(C)cc1 (stereo unspecified),inactive: 6.75%
24,O=C(CC1Oc2ccc(Cl)cc2NC1=O)NCc1ccccc1 (stereo unspecified),inactive: 3.22%

row,SMILES,"activity change, negative = cytotoxicity"
1,COc1ccc(N2CCN(C(=O)c3ccc4nc(N5CCC(C)CC5)sc4c3)CC2)cc1,inactive: -9.21%
2,Cc1ccc(Cl)cc1N(C)C(=O)c1cnc(N2CCOCC2)c2ccccc12,inactive: 18.1%
3,CCN(CC)C(=O)C1CCCN(c2ncnc3onc(C)c23)C1 (stereo unspecified),inactive: -4.33%
4,COc1ccc2nc(N3CCN(C(=O)C4CC4)CC3)sc2c1,inactive: 2.23%
5,COc1ccc(NC(=O)N2CCc3c([nH]c4ccc(OC)cc34)C2c2ccc(OC)cc2)cc1 (stereo unspecified),inactive: -21.2%
6,COC(=O)c1cc2oc3ccccc3c2n1Cc1c(F)cccc1Cl,inactive: -0.825%
7,CCc1cccc(NC(=O)CN2CCCN(Cc3cccc(C)c3)S2(=O)=O)c1,inactive: 6.46%
8,CC(NC(=O)c1sc2ncccc2c1-n1cccc1)c1ccccc1 (stereo unspecified),inactive: 2.77%
9,COc1cccc(-c2nc3c(C#N)c[nH]n3c2NC2CCCCC2)c1OC,inactive: -21.9%
10,O=C(NCCS(=O)(=O)N1CCN(c2ccc(F)cc2)CC1)c1cc(=O)c2ccccc2o1,inactive: -2.11%
11,COc1ccccc1N1CCN(S(=O)(=O)c2cc3[nH]c(=O)c(=O)[nH]c3cc2C)CC1,inactive: 8.79%
12,Cc1ccc2occ(CC(=O)N(Cc3ccc(N(C)C)cc3)C3CCS(=O)(=O)C3)c2c1 (stereo unspecified),inactive: 2.66%
13,CCOc1ccc(CNC(=O)CCC(=O)N2CCSc3ccccc32)cc1,inactive: 0.342%
14,CCN(CC)c1ccc(NC(=O)CN2CCN(CC(=O)Nc3ccccc3OC)CC2)cc1,inactive: -11.6%
15,COc1ccccc1CNC(=O)c1ccc(CN2CC(=O)N3CCCCC3C2=O)cc1 (stereo unspecified),inactive: 1.71%
16,Cc1ccc(C)c(NC(=O)N2CCC(N3CCN(Cc4ccc(F)cc4)C(=O)C3=O)CC2)c1,inactive: -3.47%
17,COc1ccccc1C(=O)NCC1(N2CCN(C)CC2)CCCCC1,inactive: 1.53%
18,Cc1cc2c(cc1S(=O)(=O)N(C)CC(=O)Nc1cccc(C#N)c1)OCC(=O)N2,inactive: -1.43%
19,CC1=Nc2cc(C(=O)NC3CCCC3)ccc2Sc2ccc(Br)cc21,inactive: 2.61%
20,CCOC(=O)c1cccc(NC(=O)CCn2nc(C)c3c(C)n(-c4ccccc4)nc3c2=O)c1,inactive: -0.021%
21,COCCCNC(=O)C1CCCN(S(=O)(=O)c2ccc3c(c2)oc(=O)n3C)C1 (stereo unspecified),inactive: -1.48%
22,CCOCCCNC(=O)c1c[nH]c2ccc(S(=O)(=O)Nc3cccc(Cl)c3C)cc2c1=O,inactive: -7%
23,CCOC(=O)N1CCc2c(sc3c2c(=O)n(-c2ccc(Cl)cc2)c(=O)n3Cc2cccc(C)c2)C1,inactive: 1.81%
24,Cn1c(=O)oc2cc(S(=O)(=O)N3CCCC(C(=O)N4CCN(c5ccccc5F)CC4)C3)ccc21 (stereo unspecified),inactive: -0.737%

row,SMILES,"activity change, negative = cytotoxicity"
1,CCOCCCn1c(SCC(=O)NCCCOC)nc2c(sc3ccccc32)c1=O,inactive: -12.8%
2,Fc1ccc(Nc2ncnc3c2nc2n3CCCC2)cc1,inactive: -6.2%
3,Cc1c(NC(=O)c2ccccc2)cc(C(C)C)c(O)c1S(=O)(=O)c1ccc(Cl)cc1,inactive: 6.97%
4,COC(=O)c1ccc(NS(=O)(=O)c2ccc3c(c2)n(C)c(=O)c(=O)n3C)cc1,inactive: -5.3%
5,CCOC(=O)c1ccc(CN(Cc2ccc(F)cc2)S(=O)(=O)c2ccc(F)c(C(=O)Nc3ccccc3C(F)(F)F)c2)cc1,inactive: -6.2%
6,Cn1c2c(c(=O)n(C)c1=O)C(c1ccccc1C(F)(F)F)CC(=O)N2 (stereo unspecified),inactive: 18.3%
7,Cn1c(COc2ccccc2C(C)(C)C)nc2ccccc21,inactive: -1.82%
8,COc1ccc(S(=O)(=O)c2cc3cc(C(C)(C)C)cc(O)c3oc2=O)cc1,inactive: -23.2%
9,CCCCCn1c(=N)c(S(=O)(=O)c2ccc(C)cc2)cc2c(=O)n3cc(C)ccc3nc21,inactive: 4.19%
10,O=C(c1ccc2c(c1)N(Cc1cccc(Cl)c1)C(=O)c1ccccc1S2(=O)=O)N1CCc2ccccc21,inactive: 11.6%
11,CCc1ccccc1N(CC)C(=O)C(=O)Nc1ccc2nc3n(c(=O)c2c1)CCCCC3,inactive: -19.7%
12,CCNC(=O)CC1C(=O)N(c2ccc(F)cc2)C(=O)N1Cc1ccc(OC)c(OC)c1 (stereo unspecified),inactive: 0.108%
13,Cc1ccc(C(=O)N2CCN(c3cccc(Cl)c3)CC2)cc1-n1c(C)nc2cccnc21,inactive: -27.2%
14,Cc1ccc(NC(=O)CSc2nnc(-c3cc4occc4n3C)n2-c2ccccc2C)c(C)c1,inactive: -3.35%
15,COc1ccc(-n2c(SC)nc3sc4c(c3c2=O)CCN(C(C)=O)C4)cc1,inactive: 2.85%
16,FC(F)(F)c1cccc(N2CCN(c3nc4ccccc4n4cnnc34)CC2)c1,inactive: -12.5%
17,CCS(=O)(=O)N1CCc2cc(C(=O)NC(C)c3ccccc3)ccc21 (stereo unspecified),inactive: 24.1%
18,O=c1c2sc3ccccc3c2n(Cc2cccc(C(F)(F)F)c2)c(=O)n1-c1ccccc1,inactive: 7.42%
19,Cc1ccc2c(c1)N(C(=O)Nc1ccc(Br)cc1F)CCO2,inactive: 2.86%
20,Cc1ccn2c(=O)cc(COc3ccc(NC(=O)C(C)(C)C)cc3)nc2c1,inactive: 13.8%
21,COC(=O)c1ccccc1NC(=O)CSc1n[nH]c(C)n1,inactive: 8.74%
22,COc1ccc(OC)c(CNS(=O)(=O)c2cc(-c3onc(C)c3C)ccc2C)c1,inactive: 3.04%
23,CCN(CC)C(=O)c1sc2c(c1C)c(=O)n(-c1ccc(C)c(C)c1)c(=O)n2CC(=O)Nc1ccc(OC)cc1OC,inactive: -15.5%
24,O=C(c1ccccc1)N1CCC(c2nc3ccccc3o2)CC1,inactive: -5.59%

row,SMILES,"activity change, negative = cytotoxicity"
1,COc1ccc(CCNC(=O)c2cnn(-c3cccc(C)c3)c2C2CCNCC2)cc1OC,inactive: 1.49%
2,CN1C(=O)Cc2cc(S(=O)(=O)CCC(=O)Nc3ccc(Cl)cc3)ccc21,inactive: -9.9%
3,CC(=O)c1ccc(NC(=O)c2cc3c([nH]c2=O)CC(c2ccccc2)CC3=O)cc1 (stereo unspecified),inactive: -10.9%
4,CCOc1ccc2c(c1)c(=O)c(C(=O)c1ccccc1)cn2Cc1ccccc1F,inactive: 1.62%
5,Cc1ccc(S(=O)(=O)c2[nH]c(-c3ccccc3)nc2SC(C)C(=O)O)cc1 (stereo unspecified),inactive: -2.15%
6,Cc1cc(C)n2c(Nc3ccc4c(c3)OCCO4)c(-c3ccccc3)nc2n1,inactive: -8.09%
7,COc1ccc(N2CCN(CCCNC(=O)c3nnc(Cc4ccccc4Cl)o3)CC2)cc1,inactive: 7.4%
8,COc1ccc(/C=C/C(=O)Nc2cc(-c3nc4ccccc4o3)ccc2OC)cc1,inactive: 11.1%
9,CC(=O)c1ccc(NC(=O)CSc2nnc(-c3ccncc3)n2-c2ccccc2)cc1,inactive: 22.9%
10,COCCN1C(=O)N(c2cccc(OC)c2)C(=O)C1CC(=O)Nc1ccccc1 (stereo unspecified),inactive: 5.63%
11,O=C(NCc1ccc(Cl)cc1)C(=O)NCC(c1ccc2c(c1)OCO2)N1CCOCC1 (stereo unspecified),inactive: 16.9%
12,COc1cc2ccccc2cc1C(=O)N1CCN(c2nc3c(F)cccc3s2)CC1,inactive: -0.189%
13,CC(=O)Nc1ccc(NC(=O)c2csnn2)cc1,inactive: -3.2%
14,CCCCc1nn2c(=O)cc(COC(=O)c3cccc(NC(=O)c4cccs4)c3)nc2s1,inactive: 2.03%
15,CC(NC(=O)CCc1cn(Cc2ccccc2Cl)c2ccccc12)c1ccccc1 (stereo unspecified),inactive: -3.26%
16,O=C(NCCc1ccccc1)c1ccc(CSc2nc3cccnc3n2Cc2ccccc2)cc1,inactive: -8.7%
17,COc1ccc(C(CC(=O)Nc2ccccn2)N2Cc3ccccc3C2=O)cc1OC (stereo unspecified),inactive: 2.11%
18,CCc1ccccc1NC(=O)Cn1nnc(C(=O)NCc2ccco2)c1N,inactive: -16.1%
19,CCOC(=O)c1nnc2c(-c3ccc(Cl)cc3)c(C)nn2c1N,inactive: -0.675%
20,CC(C)CN(c1ccccc1)S(=O)(=O)c1nnc(NC(=O)C2CCCCC2)s1,inactive: 4.14%
21,O=C(NCCO)C(=O)NCC(c1ccc2c(c1)OCO2)N1CCOCC1 (stereo unspecified),inactive: 9.63%
22,COc1ccc(/C=C/c2nc(C#N)c(N3CCC(C(N)=O)CC3)o2)cc1OC,inactive: 0.21%
23,Cc1ccc(-c2nc(CS(=O)(=O)CC(=O)NC(C)CCc3ccccc3)c(C)o2)cc1 (stereo unspecified),inactive: 2.13%
24,CCOC(=O)C1CCN(c2cc3c(cc2NC(=O)c2ccccc2Cl)n(C)c(=O)n3C)CC1,inactive: -6.91%
